Recombinant human monoclonal antibodies (heavy:light variable regions). ELISA EC50 on the named antigen, from 10 µg/ml down; IC50 / IC90 against spike pseudovirus on 293T-ACE2 cells, 48 h; lower = stronger. Calls: IC50 above 1,000 ng/ml = non-neutralizing; EC50 above 2,000 ng/ml = non-binder. The source prints 1000 for neutralization that was not reached; it is given as >1000 ng/ml. A few antibodies were first reported in earlier work of the same group.
B1: C2109 (protein)
chain 1: EVQLVESGGGLVQPGRSLRLSCAASGFTFDDYAMHWVRQAPGKGLEWVSGISWNSGSIGYADSVKGRFTISRDNAKNSLYLQMNSLRAEDTALYYCAKDRTDRLLTFDYWGQGTLVTVSS
chain 2: DIQMTQSPSTLSASVGDRVTITCRASQSFSSWLAWYQQKPGKAPKLLIFDASSLESGVPSRFSGSGSGTEFTLTISSLQPDDFATYYCQQYNSYPLTFGGGTKVEIK
B2: C2210 (protein)
chain 1: EVQLVESGGGLVQPGRSLRLSCAASGFTFDDYAMHWVRQAPGKGLEWVSGISWNSGTIGYADSVKGRFTISRDNAKNSLYLQMNSLRAEDTAFYYCAKDYCGGDCYSPTRGAGYGMDVWGQGTTVTVSS
chain 2: QSALTQPASVSGSPGQSITISCTGTSSDVGGYNYVSWYQQHPGKAPKLMIYDVSNRPSGVSNRFSGSKSGNTASLTISGLQAEDEADYYCSSYTSSSGVVFGGGTKLTVL
B3: C2107 (protein)
chain 1: EVQLLESGGGLVQPGGSLRLSCAASGFTFSRYAMSWVRLAPGRGLEWVSGIGGSGESTYYTDSVKGRFIISRDNSKDTLYLQMHSLRAEDTAVYYCAKGKHWNDDYFEYWGQGTLVTVSS
chain 2: DIQMTQSPSPLSASVGDRVTITCRASQSITIWLAWYQQKPGKAPKLLIYDASTLESGVPSRFSGSGSGTEFTLTISSLQVDDFATYYCQQYNDFPWTFGQGTKVEIK
B4: C2132 (protein)
chain 1: QLQLQESGPGLVKPSETLSLTCIVSGGSINSTTYYWDWIRQSPGKGLEWIGSIFYTGITYYSPSLKTRVTISVDTSKNQFSLRLNSMTAADTAVYYCARRLRQLWFGPWFDPWGQGTLVTVSS
chain 2: QSALTQPASVSGSPGQSITISCTGTSSDVGGYNYVSWYQQHPGKAPKLMIYEVSNRPSGVSNRFSGSKSGNTASLTISGLQAEDEADYYCSSYTSSSTPVVFGGGTKLTVL
B5: C2111 (protein)
chain 1: VQLVESGGGVVQPGRSLRLSCAASGFTFSSYAMHWVRQAPGKGLEWVAVVSYDGSNKYYADSVKGRFTISRDNSKNTLYLQMNSLRAEDTAVYYCARDMGSAMVDYFDYWGQGTLVTVSS
chain 2: DIQLTQSPSSLSASVGDRVTITCRASQSISSYLSWFQQKPGKAPKLLIYAASSLQSGVPSRFSGSGSGTDFTLTISSLQPEDFATYYCQQSYSTLSYTFGQGTKLEIK
B6: C2412 (protein)
chain 1: QVQLQESGPGLVKPSQTLSLTCTVSGGSISSGGYYWSWIRQHPGKGLEWIGYIYYTGITYYNPSLKGRITISIDTSKNQFSLNLSSVTAADTAVYSCAGSSGWFGEFFDYWGQGTLVTVSS
chain 2: EIVLTQSPATLSLSPGERATLSCRASQSVRNYLAWYQQKPGQAPRLLIYDASNRATGIPARFSGSGSGTDFTLTISSLEPEDFAVYYCQQRFNWPPITFGQGTRLEIK
B7: C2106 (protein)
chain 1: QLQLQESGPGLVKPSETLSLTCTVSGGSISSSSYYWGWIRQPPGKGLEWIGSIYYSGSTYYNPSLKSRVTISVDTSKNQFSLKLSSVTAADTAVYYCARLPYYYGSGSYYNRDYYYYGMDVWGQGTTVTVSS
chain 2: EIVLTQSPATLSLSPGERATLSCRASQSVSSYLAWYQQKPGQAPRLLIYDASNRATGIPARFSGSGSGTDFTLTISSLEPEDFAVYYCQQRSNWPLLAFGPGTKVDIK
B8: C2131 (protein)
chain 1: EVQLLESGGGLVQPGGSLRLSCAASGFTFSRYAMSWVRLAPGRGLEWVSGIGGSGESTYYTDSVKGRFIISRDNSKDTLYLQMHSLRAEDTAVYYCAKGKHWNDDYFEYWGQGTLVTVSS
chain 2: EIVLTQSPATLSLSPGERATLSCRASQSVSSYLAWYQQKPGQAPRLLIYDASNRATGIPARFSGSGSGTDFTLTISSLEPEDFAVYYCQQRSNWPGFTFGPGTKVDIK
B9: C2456 (protein)
chain 1: QVQLVQSGAEVKKPGASVKVSCKTSGYNFKSFGISWVRQAPGQGLEWMGWISPYNGNTKYVQKFRGRVTMTTDTSTSTAYMELRSLRSDDTAVYYCARDGELMGWFDPWGQGTLVTVSS
chain 2: QSALTQPASETGSPGQSITISCSGTSSDVGSYNLVSWYQQHPGQPPKLMIYKDTERPSGISNRFSGSKSGNTASLTISGLQAEDEADYYCCSYAGSSTWVFGGGTKLTVL
B10: C2113 (protein)
chain 1: VQLVESGGGLIQPGGSLRLSCAASGFTVSSNYMSWVRQAPGKGLEWVSVIYSGGSTYYADSVKGRFTISRDNSKNTLYLQMNSLRAEDTAVYYCARDFGEFYFDYWGQGTLVTVSS
chain 2: EIVLTQSPGTLSLSPGERATLSCRASQTVSSNYLAWYKQKPGQAPRLLIYGAASRATGIPDRFSGSGSGTDFTLTISRLEPEDFAVYYCQQYGSSPRTFGQGTKVEIK
B11: C2206 (protein)
chain 1: VQLVESGGGVVQPGRSLRLSCAASGFTFSQYGMHWVRQAPGKGLEWVAVISYDGTDKYYADSVKGRFTISRDNSKNTLSLQMNSLRAEDTAVYYCAKLGGPYCSGGNCYSGYFDYWGQGTLVTVSS
chain 2: IRMTQSPSSLSASVGDRVTITCQASQDISNYLNWYQQKPGKAPKLLIYDASNLETGVPSRFSGSGSGTDFTFTISSLQPEDIATFYCQQYDNLPLTFGGRTKVEIK
B12: C2413 (protein)
chain 1: QVQLQESGPGLLKPSQTLSLTCTVSGGSISRGGFYWSWIRHHPVKGLEWIGYIYYSGSTYYNPSLKSRVTISVDTSKNQFSLKLSSVTAADTAVYYCARDYGGNANYFHYWGQGTLVTVSS
chain 2: IRMTQSPSSQSASVGDRVTITCQASQDISNYLSWYQQKAGKAPKLLIYDASNLETGVPSRFSGSGSGTDFTFTISSLQPEDIATYYCQQYANLPLTFGGGTKVEIK
B13: C2136 (protein)
chain 1: EVQLVESGGGLVQPGRSLRLSCGASGFTFEDYGMHWVRQAPGKGLEWVSGISWNGGIIGSADSVKGRFTISRDNAKNSLYLQMISLRPEDTAVYYCAKDISVLDYGVYGAIDVWGQGTMVTVSS
chain 2: EIVLTQSPGTLSLSPGERATLSCRASQSVSSSYLAWYQQKPGQAPRLLIYGATSRATGIPDRFSGSGSGTDFTLTISRLEPEDFAVYYCQQYSGPYTFGQGTKLEIK
B14: C2458 (protein)
chain 1: VQLVESGGGVVQPGRSLRLSCTGSGFTFSTYGMHWVRQAPGKGLEYVAFTSFDGSNKYYAGSVKGRFTISRDNSKNTLYLQMNSLRAEDTAVYFCAKDPMPGAVATTGSFDYWGQGTLVTVSS
chain 2: SYELTQPPSVSVAPGQTARITCGANNIGSKSVHWYQQKPGQAPVLVVYDDSDRPSGIPERFSGSNSGNTATLTISRVEAGDEADYYCQVWDSSSDPHWVFGGGTKLTVL
B15: C2473 (protein)
chain 1: EVQLVESGGGLMQPGGSLRLSCAASGVIVSRNYMRWVRQAPGKGLEWVSLIYSGGSTFYSDSVKGRFTISRDTSKNTLYLQMNSLRAEDTAVYYCARDLLEAGGMDVWGQGTTVTVSS
chain 2: DIQLTQSPSFLSASVGDRVTITCRASQGISSYLAWYQQKQGKAPKILVYAASTLQSGVPSRFSGSGSGTEFTLTISSLQPEDFATYYCQHLNSHPLTFGGGTKVEIK
B16: C2110 (protein)
chain 1: QLQLQESGPGLVKPSETLSLTCTVSGGSISSSSYYWGWIRQPPGKGLEWIGSIYYIGNTYYNPSLKSRVTISVDTSKNQFSLKLSSVTAADTAVYYCARHETDYGGVAGHFQHWGQGTLVTVSS
chain 2: QSALTQPASVSGSPGQSITISCTGTSSDVGSYNLVSWYQQHPGKAPKLMIYEGSKRPSGVSNRFSGSKSGNTASLTISGLQAEDEADYYCCSYAGSYVVFGGGTKLTVL

Biological target: SARS-CoV-2 Wuhan-Hu-1 spike pseudovirus
Assay: pseudovirus neutralization IC50; higher = weaker neutralization
Procedure: (§1)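 Single-round luciferase reporter pseudovirus mixed with antibody dilutions and put on 293T-ACE2 cells for 48 h; signal relative to no-antibody wells, four-parameter fit.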

Binder	pseudovirus neutralization IC50 [µg/mL]
B1	0.849
B2	0.244
B3	> 1
B4	> 1
B5	> 1
B6	> 1
B7	> 1
B8	> 1
B9	0.00187
B10	0.0651
B11	> 1
B12	> 1
B13	> 1
B14	0.296
B15	0.00207
B16	0.118

Biological target: SARS-CoV-2 Wuhan-Hu-1 spike pseudovirus
Assay: pseudovirus neutralization IC90; higher = weaker neutralization
Procedure: as §1

Binder	pseudovirus neutralization IC90 [µg/mL]
B1	> 1
B2	> 1
B3	> 1
B4	> 1
B5	> 1
B6	> 1
B7	> 1
B8	> 1
B9	0.00978
B10	0.471
B11	> 1
B12	> 1
B13	> 1
B14	> 1
B15	0.143
B16	> 1

Biological target: SARS-CoV-2 Wuhan-Hu-1 spike receptor-binding domain
Assay: ELISA binding EC50; higher = weaker binding; ELISA of recombinant human antibody on coated antigen, from 10 µg/ml in fourfold dilutions; four-parameter fit.

Binder	ELISA binding EC50 [µg/mL]
B1	0.00184
B2	0.00144
B3	0.00361
B4	> 10
B5	0.00173
B6	0.00323
B7	0.0683
B8	> 10
B9	0.00134
B10	0.00185
B11	0.00225
B12	0.00648
B13	0.00121
B14	0.00229
B15	0.00148
B16	0.00256
